The source of these data is PubChem BioAssay AID1918938 (Molecular Pharmacology Branch, DTP, NCI, 2023).

For part of its entries the source gives two or more results. This is not the full list of results. There may be further records. Values given together are repeated measurements across runs, samples, wells, individuals or studies. Counts like (3×) give the number of equal values in this list.

The test system of this assay is 556581-035-R-J1-PDC complex spheroid viability. The assay can be described thus: Anticancer human tumor 556581-035-R-J1-PDC patient-derived ovarian carcinoma cell line growth inhibition. The settings on record: for viability, T/C: stronger effect = lower value. An excerpt: Multicellular complex tumor spheroid response to LSD1 Inhibitor Iadademstat in combination with a variety of drugs and investigational agents in selected tumor cell lines
The current study was undertaken to assess response to LSD1 inhibitors in combination with standard-of-care drugs and investigational agents in solid tumor complex spheroid models as well as in the K-562 leukemia. Complex spheroids include a stromal component modeled by human endothelial cells (HUVEC) and fibroblasts modeled by human mesenchymal stem cells (MSCs). The concentration ranges selected for each drug and investigational agent were based upon clinically achievable concentrations if the clinical Cmax of the agent was known.
Compounds. The drugs and investigational agents used in this study are listed on Table 1. All of the agents used, including staurosporine (NSC755774) and gemcitabine (NSC613327), were obtained from the Developmental Therapeutics Program, NCI. FDA-approved anticancer drugs are available from the NCI at http://dtp.nci.nih.gov/branches/dscb/oncology_drugset_explanation.html. Drugs and investigational agents were >95% pure by proton nuclear magnetic resonance (NMR) and liquid chromatography/mass spectrometry (LC/MS). Stock solutions were prepared at 400x in DMSO, stored at -70 degrees C, and diluted in fresh medium prior to their use. The final concentration of DMSO in cell culture wells never exceeded 0.25% (v/v). The FDA-approved anticancer drug set is available from the Developmental Therapeutics Program at https://dtp.cancer.gov/organization/dscb/obtaining/available_plates.htm. All drugs and investigational agents were tested over a range starting from a high concentration at or near the clinical Cmax and decreasing in half-log increments. If the clinical Cmax for an agent had not been determined, the highest concentration tested was 10 microM.
Cell Lines. The patient-derived cancer cell (PDC) lines: 292921-168-R-J2-PDC, K24384-001-R-PDC, and 521955-158-R2-J5-PDC pancreatic carcinomas, 556581-035-R-J1 ovarian carcinoma, 324938-238-R-J1-PDC, 855422-203-R-J1-PDC and 883617-216-R-J1-PDC urothelial bladder carcinomas, 743489-274-T-PDC renal cell carcinoma, 138582-R-J1 Merkel cell tumor, K60290-347-R-J1 and K57222-313-R-J1-PDC glioblastomas, 653999-131-R-J2-PDC, LG0703-F948-PDC, and 349418-098-R-PDC non-small cell lung carcinomas, 885512-296-R-J2-PDC, 171881-019-R-J1-PDC breast carcinomas and 186277-243-T-J2-PDC and 233499-124-R-J2-PDC colon carcinomas were obtained from the NCI Patient-Derived Models Repository (PDMR, https://pdmr.cancer.gov). The established cell lines NCI/ADR-RES (RRID:CVCL_14520 and OVCAR-5 (RRID:CVCL_1628) ovarian carcinomas, 786-O (RRID:CVCL_1051) and A498 (RRID:CVCL_A498) renal cell carcinoma, NCI-H211 (ATCC, cat. CRL-5824; RRID:CVCL_1529), NCI-H196 (ATCC, cat. CRL-5823, RRID:CVCL_1509), SW 1271 (ATCC, cat. CRL-2177, RRID:CVCL_1716) and NCI-H1876 (ATCC, cat. CRL-5902, RRID:CVCL_1503) small cell lung carcinomas, MDA-MB-231 (RRID:CVCL_0062) and MDA-MB-468 (RRID:CVCL_0419)breast carcinomas (10-12). Pooled donor human umbilical vein endothelial cells (HUVEC, Lonza, cat. CC-2519) and human mesenchymal stem cells (hMSC, Lonza, cat. PT-2501) were purchased from Lonza (Walkersville, MD).
Cell Culture. All cells were maintained in an incubator at 37 degrees C and 5% CO2 with 95% humidity. The PDC lines were cultured according to standard operating procedures established by the NCI PDMR (https://pdmr.cancer.gov). Briefly all PDCs were thawed and cultured in Matrigel-coated flasks prepared with a working solution of 1X Ham's F-12 nutrient mix, without supplementation (Invitrogen, Waltham, MA, cat. 11765054), 100 U/mL penicillin-streptomycin (Invitrogen, cat. 15140122), and 2.5% Matrigel (Corning Inc., Corning, NY, cat. 354248) for the first three passages. […]
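Also: spheroids exposed to agents for seven days.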
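For viability, T/C in this document: 100% = DMSO vehicle control wells.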

Take `NC1CC1c1ccc(-c2cccc(O)c2)cc1` (centres undefined): the viability, T/C reads like this: (compound alone 0.316 µM) 83.8 (2×), 76.5, 91.7, 95.7, 94.8, 91.2, 87.6, 93, 95, 90.2, 88.3, 90, 79.8, 95.6, 72.4, 79.7, 84.7, 86.2, 99.9, 79.2, 95.1, 84.1, 90.8%; (compound alone 1 µM) 85.9, 90.7, 90.1 (2×), 99.1 (2×), 83.7, 93, 84.1, 80.9, 85.2, 79.3, 98.9, 89.7, 90.4, 75.7, 100, 87.4, 102, 91.1, 95.9, 92.1, 84.2, 78.4%; (compound alone 10 µM) 82.5, 85.9, 105, 89, 94, 87.6, 91, 85.1, 85.8 (2×), 81.7 (2×), 79.1 (2×), 90.2, 90.7, 88, 93, 80.7, 69.5, 83, 85.4, 80, 84%.

With `O=C(C=Cn1cnc(-c2cc(C(F)(F)F)cc(C(F)(F)F)c2)n1)NNc1cnccn1`, under “compound alone 0.316 µM”, the viability, T/C is 52% and 10.9%.

For `COc1cc(Nc2ncc3c(n2)-c2ccc(Cl)cc2C(c2c(F)cccc2OC)=NC3)ccc1C(=O)O`, for the setting “compound alone”, the IC50 was 309 nM and 15.2 nM.

With `NC1CCC(NC2CC2c2ccccc2)CC1` (centres undefined), the viability, T/C is 81.3, 104 (2×), 83.6, 101, 82.9, 88, 103, 92.1, 74.6, 91.9, 85.4, 96.5, 94.1, 91.6, 96.1, 87.8, 88.8, 84.9, 84.2 (2×), 102 (2×), 93.3, 91.7% (compound alone 0.1 µM); 78.6, 97.8, 85.1, 83.6, 87.8, 80.8, 90.9, 86.3, 71.8, 79.2, 88.2, 93.8, 90.5, 82.9, 92.9, 81.3, 86.8 (2×), 87.9, 81.9, 81.1 (2×), 80, 87.3, 83.8% (compound alone 1 µM); 75.1, 80.2 (2×), 93.4, 90.7, 79.5, 73.7, 95, 79.3, 83.3, 78.3, 84.3, 77.7, 66.1, 77, 82.5, 84.6, 86.7, 86.5, 81.7, 79.2, 83.2, 89, 83.6, 78.1% (compound alone 3.16 µM); 70.1, 85.1, 87.8, 75.7, 72.4, 72.6, 91.8, 63, 70.4, 79.8, 77.2, 64.5, 75.4 (2×), 88, 66.9, 85.8, 81.4, 70.6, 70.8, 73.7, 73.4, 68.7% (compound alone 10 µM).
